Data reported in PubChem BioAssay AID904 (National Center for Advancing Translational Sciences (NCATS), 2007).
The campaign covered roughly 55,000 compounds. About 530 (0.96%) were called active. The shares of active, inactive and inconclusive entries below differ from those in the screen. Calls come from the whole dose curve; as a rule, active = well fitted cell-killing curve with a large enough effect; inconclusive = small, poorly fitted or top-dose-only effect; inactive = no such curve, though single readings can be large or run the other way. Potencies beside an inconclusive call are fits to weak or partial responses and may not hold up.

assay: qHTS Screen for Compounds that Selectively Target Cancer Cells with p53 Mutations: Cytotoxicity of p53 Null Cells at the Nonpermissive Temperature; conditions: H1299 p53-null (neo) cells, 39C, ATPlite viability, 24 h; series mostly up to 46.1 µM; note: nearly all actives have a fitted effect of over 50% in size
Procedure, shortened: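 Concentration-response (up to 46 uM) was run for 24 h at the nonpermissive 39C on H1299-p53A138V or H1299-neo cells. ATP content was measured with ATPlite luminescence. AC50 values were Hill-modeled after normalizing between DMSO and 100 uM tamoxifen killing.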
Potency is the fitted concentration of half-maximal effect; tags give direction and shape of the fitted curve.

Structure (SMILES) | Potency
C=CCSc1nc2c(c(=O)[nH]c(=O)n2C)n1Cc1ccc(C)cc1 | inconclusive: 100 µM [cytotoxic, partial curve, poor fit]
Cc1cc2oc(C(=O)Nc3nc(-c4ccccc4)ns3)c(C)c2cc1Cl | inconclusive: 15.8 µM [cytotoxic, partial curve, poor fit]
CN1CCN(C(CNC(=O)C(=O)Nc2ccc(F)cc2)c2cccnc2)CC1 (stereo not given) | inconclusive: 35.5 µM [cytotoxic, single point]
Cc1ccc2nc(-c3ccc(NC(=O)COc4ccccc4)cc3)sc2c1 | inconclusive: 7.94 µM [cytotoxic, partial curve]
Cc1ccc(C2=Nc3ccccc3N(CC(=O)NCc3ccccc3Cl)C(=O)C2)cc1C | inconclusive: 7.94 µM [cytotoxic, partial curve, poor fit]
C/C(=N\Nc1nc2ccccc2[nH]1)c1cc2ccccc2o1 | inconclusive: 20 µM [cytotoxic, single point]
CCN(CC)c1ccc(NC(=O)c2sc3nc4c(cc3c2N)CN(C)CC4)cc1 | inconclusive: 0.01 µM [cytotoxic, full curve, poor fit]
Cc1nnc(N2CCC(C(=O)NCCc3ccccc3)CC2)c2nn(-c3ccc(Cl)cc3)c(C)c12 | inconclusive: 2.51 µM [cytotoxic, full curve]
O=C1CN(C(=O)c2ccc(S(=O)(=O)N3CCCC3)cc2)C(c2ccccc2)c2cc(Br)ccc2N1 (stereo not given) | inconclusive: 0.316 µM [cytotoxic, full curve, poor fit]
CCOc1ccc(-c2nnc(SCC(=O)NCc3ccccc3)o2)cc1 | inconclusive: 20 µM [cytotoxic, single point]
CCOc1ccc(NC(=O)c2cc(=O)c3ccc(C)c(C)c3o2)cc1 | inactive
CCCCNC(=O)CSc1nnc(C)c2c(C)n(-c3ccccc3)nc12 | inconclusive: 10 µM [cytotoxic, partial curve]
O=C(CSc1nnc2[nH]c(=O)cc(-c3ccccc3)n12)Nc1ccc(F)cc1F | inconclusive: 2.82 µM [cytotoxic, full curve]
CC(=O)Nc1cc(-c2nc3ccccc3s2)ccc1C | inconclusive: 25.1 µM [cytotoxic, partial curve]
O=C1OC(C(=O)Nc2ccc(Cl)c(C(F)(F)F)c2)Cc2ccccc21 (stereo not given) | inactive
CNC(=O)c1c[nH]c2ccc(S(=O)(=O)Nc3cccc(Cl)c3C)cc2c1=O | inconclusive: 10 µM [cytotoxic, partial curve]
COc1cccc(CNC(=O)C2CCCN(S(=O)(=O)N(C)c3ccc(F)cc3)C2)c1OC (stereo not given) | inactive
CCc1c(C)c2ccc(O)c(CN3CCN(c4ccc(F)cc4)CC3)c2oc1=O | inactive
Cn1c(/C(C#N)=C/c2ccccc2Br)nc2ccccc21 | inconclusive: 15.8 µM [cytotoxic, single point]
Cn1c(=O)c2sccc2n2c(CCCC(=O)Nc3ccc(Oc4ccccc4)cc3)nnc12 | inactive

Structure (SMILES) | Potency
CCOc1ccc(OCC(=O)Nc2ccc(S(=O)(=O)Nc3cc(C)on3)cc2)cc1 | inconclusive: 0.005 µM [cytotoxic, full curve, poor fit]
Cc1ccccc1CCNC(=O)c1ccc(Cn2c(=O)c3cccn3c3cccnc32)cc1 | inconclusive: 12.6 µM [cytotoxic, single point]
O=C(CSc1nccn1Cc1ccc(Cl)cc1)Nc1nc2ccccc2s1 | active: 14.1 µM
CCc1ccccc1NC(=O)Cn1nc(CC)n2c(cc3sccc32)c1=O | inactive
COc1ccc(CNC(=O)CSc2ncc3c(n2)-c2ccc(Cl)cc2N(Cc2ccccc2)S3(=O)=O)cc1 | inconclusive: 10 µM [cytotoxic, partial curve, poor fit]
O=C(CSc1nccn1Cc1ccc(F)cc1)Nc1nc2ccccc2s1 | inconclusive: 31.6 µM [cytotoxic, single point]
CCN(Cc1ccccc1)C(=O)C1CCN(S(=O)(=O)c2ccc3c(c2)CCCN3C(C)=O)CC1 | inconclusive: 6.31 µM [cytotoxic, partial curve]
CCN(CC)c1cc(C)c2cc(NC(=O)/C=C/c3cc(OC)c(OC)c(OC)c3)ccc2n1 | active: 22.4 µM
Cc1ccc(-n2ncc3c(Nc4cccc(Cl)c4)ncnc32)c(C)c1 | inactive
COCCSc1nc2c([nH]c3ccccc32)c(=O)n1-c1ccc(OC)c(OC)c1 | inconclusive: 0.0089 µM [cytotoxic, full curve, poor fit]
Cc1ccc(CN(C(=O)COc2ccccc2Cl)c2ccccn2)o1 | inconclusive: 5.01 µM [cytotoxic, partial curve]
COc1ccc(Nc2c3c(nc4ccccc24)CCC3)cc1Cl | inconclusive: 25.1 µM [cytotoxic, partial curve]
COc1ccc(OC)c(S(=O)(=O)N2CCC(n3c(C)nc4cccnc43)CC2)c1 | inconclusive: 0.01 µM [cytotoxic, full curve, poor fit]
CCc1ccc(-n2nc(CO)c(C(=O)NCCOC)n2)cc1 | inconclusive: 31.6 µM [cytotoxic, partial curve]
CCOC(=O)c1c(C)sc(-c2c(-c3ccccc3)[nH]c3[nH]c(=O)[nH]c(=O)c23)c1O | inconclusive: 31.6 µM [cytotoxic, single point]
O=C(NCc1ccco1)c1ccc(Cn2c(SCc3ccccc3)nc3cccnc32)cc1 | inconclusive: 11.2 µM [cytotoxic, partial curve, poor fit]
CC(=O)c1ccc(NC(=O)C2CCN(c3nnc(C)c4c(C)n(-c5ccccc5)nc34)CC2)cc1 | inconclusive: 12.6 µM [cytotoxic, single point]
COc1ccc(-c2cc(C(=O)N3CCN(c4ccccc4)CC3)no2)cc1 | inconclusive: 35.5 µM [cytotoxic, single point]
CCN(Cc1ccccc1)Cc1c(O)ccc2oc(C)c(C(=O)Nc3ccc(C)cc3C)c12 | inactive
COc1ccc2c(c1)c(=O)c(C(=O)c1ccc(F)cc1)cn2CC(=O)Nc1ccc2c(c1)OCO2 | inconclusive: 10 µM [cytotoxic, single point]
